Test results published in PubChem BioAssay AID588855 (National Center for Advancing Translational Sciences (NCATS), 2011).
The whole screen tested about 410,000 compounds, of which about 5,000 (1.2%) were called active. This list was built around the results that the source calls inconclusive (neither active nor inactive); the mix of calls is not that of the screen. Calls follow the shape of the dose curve; as a rule, active = well fitted inhibition curve with a large enough effect; inconclusive = small, poorly fitted or top-dose-only effect; inactive = no such curve, though single readings can be large or run the other way. Potencies of inconclusive entries are doubtful fits and often do not repeat.

Assay: qHTS for Inhibitors of TGF-b; also: nearly all actives have a fitted effect of over 65% in size
Conditions: HepG2 CAGA-GFP TGF-b/SMAD3 reporter, GFP fluorescence, 18 h, TGF-beta stimulated, 500 pg/mL final; series mostly up to 46.1 µM; activity, negative = inhibition: at the top concentration
Method in brief: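 Using HEPG2 CAGA-GFP reporter cells at 1000 cells/well, we pinned test compounds, stimulated with recombinant TGF-beta (500 pg/mL final) and measured total well GFP after 18 h.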
% is scaled to controls: 0 for no effect and ±100 for the full control effect; potency is read from the fitted curve at half-maximal effect; tags tell the direction and shape of the fitted curve.

Row | SMILES | Potency | activity, negative = inhibition
1 | Cc1cc(S(=O)(=O)c2ccc(Cl)cc2)nc(S(=O)(=O)c2ccc(Cl)cc2)c1C#N | active: 7.08 µM | 
2 | CCOc1cc(/C=C2/C(=N)N3C=CSC3=NC2=O)ccc1OCCCOc1ccccc1C | inconclusive: 35.5 µM [inhibitor, single point] | 
3 | COc1ccc(OC)c(Nc2nc(NCc3ccco3)c3ccccc3n2)c1 | inconclusive: 35.5 µM [inhibitor, single point] | 
4 | COc1cccc(-c2nc(CS(=O)(=O)CC(=O)NCC(C)c3ccccc3)c(C)o2)c1 (configuration not stated) | inconclusive: 35.5 µM [inhibitor, partial curve, poor fit] | 
5 | CCc1cccc2c(C(=O)COC(=O)/C=C/c3ccccc3OC)c[nH]c12 | inconclusive: 35.5 µM [inhibitor, single point] | 
6 | CS(=O)(=O)c1cnc(-c2cccnc2)nc1N | inconclusive: 6.31 µM [inhibitor, single point] | 
7 | CCOc1ccccc1NC(=O)c1nc2nc(C)cc(C(F)F)n2n1 |  | inactive: 0%
8 | COc1cccc(-c2nc(CS(=O)(=O)CC(=O)Nc3c(C)cc(C)cc3C)c(C)o2)c1 | active: 10 µM | 
9 | N#CSC(c1ccccc1)c1nc2ccccc2[nH]c1=O (configuration not stated) | inconclusive: 17.8 µM [inhibitor, single point] | 
10 | O=c1[nH]c2c(s1)C(c1ccc(O)cc1)C1C3CCC(C3)C1S2 (configuration not stated) | inconclusive: 20 µM [inhibitor, partial curve, poor fit] | 
11 | CC1CCC(C(C)C)C(OCC(O)CN2CCOCC2)C1 (configuration not stated) | inconclusive: 2.51 µM [inhibitor, full curve, poor fit] | 
12 | COC(=O)c1ccc(Cl)c(NC(=O)NC2CCCCC2)c1 | inconclusive: 2.51 µM [inhibitor, single point] | 
13 | O=C(NCc1ccccc1)c1nc[nH]c1C(=O)N1CCN(c2ccccc2)CC1 |  | inactive: -7.24%
14 | Cc1ccccc1C(C(=O)NC1CCCC1)N(C(=O)Cc1cccs1)c1ccc2c(c1)OCCO2 (configuration not stated) | inconclusive: 20 µM [inhibitor, single point] | 
15 | COc1cc(Cl)cc(/C=N\NC(=O)c2ccc3c(c2)OCO3)c1O | active: 11.2 µM | 
16 | COc1ccc(C2/C=C\CN(Cc3ccccc3)C(C)C(=O)N2Cc2ccc(F)cc2)cc1 (configuration not stated) | inconclusive: 35.5 µM [inhibitor, single point] | 
17 | Cc1cccc(NC(=O)CS(=O)(=O)c2nc(-c3ccccc3)cn2-c2cccc(Cl)c2)c1C | inconclusive: 11.2 µM [inhibitor, partial curve] | 
18 | O=C(Nc1ccc(Cc2nc3ccccc3s2)cc1)c1ccncc1 | inconclusive: 0.141 µM [inhibitor, full curve, poor fit] | 
19 | CCC1(C)Cc2c(sc3nc(NN)n(C)c(=O)c23)CO1 (configuration not stated) | inconclusive: 22.4 µM [inhibitor, partial curve, poor fit] | 
20 | Cc1cnc(NC(=O)c2cccs2)s1 |  | inactive: -21.6%
21 | COc1ccc(Cl)cc1N1C(=O)/C(=C\c2sccc2C)N=C1SCC(=O)NC1CC1 |  | inactive: 4.07%
22 | Cc1ccc(Cl)cc1NC(=O)CC(O)(C(F)(F)F)C(F)(F)F | active: 12.6 µM | 
23 | CCCCC(=Nc1ccc(N)cc1)C1=C(O)C(C(=O)OC)C(C)(C)CC1=O (configuration not stated) | inconclusive: 11.2 µM [inhibitor, single point] | 

Row | SMILES | Potency | activity, negative = inhibition
24 | Oc1ccc(Cl)cc1/C=C/c1ccc2cccc(O)c2n1 | inconclusive: 22.4 µM [inhibitor, single point] | 
25 | COc1cc2c(cc1OC)C(SC)=NC(C)(C)C2 | inconclusive: 22.4 µM [inhibitor, single point] | 
26 | CCCS(=O)(=O)c1c(S(=O)(=O)CCC)c2ccccn2c1C(=O)OC |  | inactive: -17.7%
27 | CCOC(=O)c1cc(-c2ccc(C)cc2)n(CCC(=O)Nc2ccc(C(C)C)cc2)c1C | inconclusive: 11.2 µM [inhibitor, partial curve, poor fit] | 
28 | Cc1cc(OCCOCCNCc2ccccc2)ccc1C(C)C | inconclusive: 22.4 µM [inhibitor, single point] | 
29 | CCCCCCCC(=O)N/N=C(/C)c1c(O)cc(C)oc1=O | inconclusive: 6.31 µM [inhibitor, single point] | 
30 | O=S1(=O)N[C@@H](CC2=CCCCC2)C2CCCCC2O1 (some centres not stated) |  | inactive: -2.22%
31 | O=C(NN=C1CCCCCCCCCCC1)c1cccc(S(=O)(=O)N2CCOCC2)c1 | inconclusive: 35.5 µM [inhibitor, single point] | 
32 | Cc1ccc2oc(=O)n(CCCOc3ccc(Cl)cc3)c2c1 | inconclusive: 15.8 µM [inhibitor, single point] | 
33 | COc1ccc(N2CC(NC(=O)CCc3ccccc3)CC2=O)cc1OC (configuration not stated) | inconclusive: 10 µM [inhibitor, partial curve, poor fit] | 
34 | Oc1cc(NCCc2cccnc2)cc2cccnc12 | inconclusive: 20 µM [inhibitor, single point] | 
35 | O=C(Cc1n[nH]c(=O)[nH]c1=O)N/N=C/c1c(O)ccc2ccccc12 |  | inactive: 5.42%
36 | Cc1ccc(O)c(C(=O)c2cc(C#N)c(=O)n(Cc3ccccc3)c2)c1 |  | inactive: 2.04%
37 | Clc1ccc2oc(SCc3cccnc3)nc2c1 | inconclusive: 2.24 µM [inhibitor, partial curve] | 
38 | Cc1ccc(S(=O)(=O)NC(=S)c2ccccc2)cc1 |  | inactive: -1.94%
39 | CCc1ccc(OCCCC(=O)Nc2ccc(S(=O)(=O)Nc3cc(C)nc(C)n3)cc2)cc1 | inconclusive: 14.1 µM [inhibitor, single point] | 
40 | COc1ccc(C)cc1NC(=S)NNC(=O)c1c(Br)cnn1C | inconclusive: 10 µM [inhibitor, partial curve, poor fit] | 
41 | CCNc1ccc(-c2nc(-c3ccco3)no2)cc1[N+](=O)[O-] | inconclusive: 6.31 µM [inhibitor, single point] | 
42 | O=C(Cc1n[nH]c(=O)c2ccccc12)Nc1cc(Cl)ccc1-n1cncn1 | inconclusive: 2.82 µM [inhibitor, single point] | 
43 | O=C(NCCOCCn1c(=O)oc2ccccc21)Nc1ccc(Cl)cc1 | inconclusive: 0.562 µM [inhibitor, full curve, poor fit] | 
44 | COc1ccccc1CNC(=O)c1csc2c1CCCC2 | inconclusive: 35.5 µM [inhibitor, single point] | 
45 | CCOC(=O)N1CCc2c(sc3c2c(=O)n(-c2ccc(CC)cc2)c(=O)n3CC(=O)Nc2ccc(C)cc2)C1 |  | inactive: -24.3%
46 | O=C1NC[C@H](Cc2ccccc2)N(C[C@H]2CCCN2C[C@H](Cc2ccccc2)N2C[C@H](Cc3ccccc3)N(CCc3ccccc3)C(=O)C2=O)C1=O | inconclusive: 35.5 µM [inhibitor, single point] | 

Row | SMILES | Potency | activity, negative = inhibition
47 | COc1cc(NC(=O)c2ccccc2)c(OC)cc1NC(=O)Cc1ccc(C)cc1 |  | inactive: -12.7%
48 | CC1CCN(S(=O)(=O)c2ccc(Oc3ccc([N+](=O)[O-])cc3)cc2)CC1 | inconclusive: 3.98 µM [inhibitor, partial curve, poor fit] | 
49 | C=CCn1c(C)c(C(C)=O)c(N2CCN(C(c3ccccc3)c3ccccc3)CC2)nc1=S | inconclusive: 2.82 µM [inhibitor, full curve] | 
50 | COC(=O)[C@]1(Cc2ccccc2)N[C@H](CN(C)C(=O)Nc2ccc(Cl)cc2)[C@@H]2C(=O)N(Cc3ccccc3)C(=O)[C@@H]21 | inconclusive: 17.8 µM [inhibitor, partial curve, poor fit] | 
51 | COc1ccc(N2CCC(CNC(=S)Nc3ccc(C)cc3C)C2)cc1 (configuration not stated) | inconclusive: 12.6 µM [inhibitor, partial curve, poor fit] | 
52 | C=C1C(=O)[C@]23C[C@H]1CC[C@H]2[C@]1(C)[C@@H](OC(C)=O)CC[C@@](C)(C(=O)OC)[C@H]1C[C@@H]3OC(C)=O | inconclusive: 3.55 µM [inhibitor, full curve, poor fit] | 
53 | Cc1cccc(Nc2ccccc2C(=O)NCc2ccco2)c1C | inconclusive: 0.1 µM [inhibitor, full curve, poor fit] | 
54 | O=C(NC(=S)Nc1nc(-c2cccc([N+](=O)[O-])c2)cs1)c1cc(Cl)ccc1Cl |  | inactive: 11%
55 | O=C(CSc1nnc(-c2ccc3c(c2)OCO3)o1)Nc1ncc(Cl)cc1Cl | inconclusive: 2.82 µM [inhibitor, single point] | 
56 | O=S(=O)(Nc1ccc2cn[nH]c2c1)c1ccc(Cl)cc1 |  | inactive: 4.61%
57 | COc1ccc2c(c1)sc1ncc(C(=O)NCc3cccc(Cl)c3)c(=O)n12 |  | inactive: 12.7%
58 | S=c1[nH]nc(-c2ccc(Cl)cc2Cl)n1-c1ccc(Cl)cc1 |  | inactive: 8.61%
59 | Cc1ccc2scc(N3CCN(c4ccc(F)cc4)CC3)c(=O)c2c1 |  | inactive: -9.33%
60 | COc1ccccc1C(=O)NC(=S)/C=C1/N(C)c2ccccc2C1(C)C | active: 22.4 µM | 
61 | O=C(CCCOc1ccc(Cl)cc1Cl)N1CCCc2ccccc21 | inconclusive: 17.8 µM [inhibitor, single point] | 
62 | O=C1c2[nH]nc(-c3ccc(Br)cc3)c2C(c2cccc(O)c2)N1c1ccc(Cl)cc1 (configuration not stated) | active: 7.08 µM | 
63 | CC(CC(=O)N(C)CC(=O)Nc1ccc(N2CCOCC2)cc1)c1ccccc1 (configuration not stated) | inconclusive: 3.55 µM [inhibitor, partial curve, poor fit] | 
64 | O=C(CSCc1nc2cccnc2n1C1CCCCC1)NCc1cccc(Cl)c1 | inconclusive: 35.5 µM [inhibitor, single point] | 
65 | CC1(C)CC(=O)C2=C(C1)c1c(ccc3ccccc13)NC2c1ccc(OCC(=O)O)cc1 (configuration not stated) |  | inactive: -0.415%
66 | O=C(CN1CCN(C(=O)C2CCCO2)CC1)Nc1ccc(Cl)cc1 (configuration not stated) | inconclusive: 12.6 µM [inhibitor, single point] | 
67 | CC(C)OC(=O)NCCOC(=O)Nc1cccc(Cl)c1 |  | inactive: -8.68%
